According to PubChem BioAssay AID651820 (National Center for Advancing Translational Sciences (NCATS), 2012):
Out of some 340,000 compounds screened, about 12,000 (3.5%) were called active. The inconclusive results got no clear call from the source; some entries with a clear call stand among them for comparison. The call rests on the fitted dose curve; in most records, active means well fitted inhibition curve with a large enough effect; inconclusive means small, poorly fitted or top-dose-only effect, or another doubt; inactive means no such curve, though single readings can be large or run the other way. No potency is given beside an inconclusive call; the fits are too rough.

assay: qHTS Assay for Inhibitors of Hepatitis C Virus (HCV); details: Huh7.5.1 HCVcc-Cre (HCVcc is cell-culture hepatitis C virus) infection, luciferase reporter, 44 h; series mostly up to 41.8 µM
Method in brief: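 Infectious HCV cell culture screen: compound-treated cells (1,000/well, pre-plated 4 h) are infected with HCVcc-Cre at roughly 0.5 moi and grown 44 h. Infection is quantified by luciferase signal after 15 min substrate incubation at room temperature.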
Potency means the concentration at half of the fitted maximal effect; tags describe the fitted curve by direction and shape.

Row | SMILES | Potency
1 | Cc1cc(C(=O)CC#N)c(C)n1-c1ccc(OC(F)F)cc1 | inconclusive [inhibitor, single point]
2 | CCc1noc(C)c1C(=O)OCC(=O)Nc1nc(-c2ccc(F)c(F)c2)cs1 | inconclusive [inhibitor, partial curve]
3 | COC(=O)c1[nH]c2cc(OC)ccc2c1NC(=O)CCN1CCN(c2ccccc2)CC1 | inactive
4 | COc1ccc(Br)cc1/C=C\C(=O)NCc1cccnc1 | inconclusive [inhibitor, single point]
5 | COc1ccc(NS(=O)(=O)c2ccc(C(=O)N(C)Cc3cccs3)cc2)cc1 | inconclusive [inhibitor, single point]
6 | COc1ccc2cc(C(=O)N3CCCC(Nc4ccc(F)cc4)C3)n(C)c2c1 (centres undefined) | inconclusive [inhibitor, single point]
7 | O=C(Nc1ccc(S(=O)(=O)NCc2ccco2)cc1)c1ccc2ccccc2n1 | inconclusive [inhibitor, full curve]
8 | COc1ccc(-c2cc(C(F)(F)F)nc(NCc3ccco3)n2)cc1OC | inconclusive [inhibitor, single point]
9 | CN(C(=O)c1cccc(Nc2ccc(-c3ccc4c(c3)OCCO4)nn2)c1)C1CCCCC1 | inconclusive [inhibitor, single point]
10 | COc1ccc(Br)cc1CNC(=O)CCC(=O)N1CCSc2ccccc21 | inactive
11 | COc1cc(/C=C2\SC(=S)N(Nc3ncc(C(F)(F)F)cc3Cl)C2=O)ccc1O | inactive
12 | CCN(CC)c1ccc(CN(C)CCc2ccc(OC)c(OC)c2)cc1 | inconclusive [inhibitor, full curve]
13 | Cc1cc(NC(=O)c2nn3cccnc3c2Cl)no1 | inactive
14 | c1ccc2c(c1)Cn1c-2nc2ccccc21 | inconclusive [inhibitor, single point]
15 | Cc1ccc(NC(=O)COc2ccc(CCO)cc2-n2nc3ccccc3n2)cc1C | active: 12.6 µM
16 | O=C(NCCCN1CCOCC1)c1cc(-c2ccc(Br)cc2)nc2ccccc12 | inconclusive [inhibitor, partial curve]
17 | Cc1onc(-c2c(Cl)cccc2Cl)c1C(=O)Nc1nc(C(C)(C)C)cs1 | inconclusive [inhibitor, single point]
18 | Cc1nc(C)c(-c2nnc(-c3cccc(S(=O)(=O)N(C)C)c3)o2)cc1C(=O)NN | inconclusive [inhibitor, partial curve]
19 | O=C(CN1C(=O)COc2ccccc2C1=O)c1ccc2c(c1)OCCO2 | inactive
